First the molecules themselves.
B1: CPEB3 Ribozyme (parent)
chain: UAACAGGGGGCCACAGCAGAAGCGUUCACGUCGCAGCCCCUGUCAGAUUCUGGUGAAUCUGCGAAUUCUGCUGUAUAUCUC

Read counts are not given, so values of variants with three or more changes are uncertain.

The data set covers variants of B1. Put plainly: self-cleavage, relative activity (ratio to wild type); higher = more cleavage; in vitro, sequencing. An outline of the steps:
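Relative activity compares each variant's cleaved/total read fraction with that of the unmutated ribozyme. To get these fractions, barcoded CPEB3 ribozyme libraries from rounds of error-prone PCR were transcribed with T7 RNA polymerase for 5 hours at 37°C and then given 15 min of DNase I treatment before EDTA was added. The RNAs were reverse transcribed with template switching and sequenced on Illumina, and DNA sequencing linked barcodes to variants. A minimum of 5 reads applied, and three batches were averaged.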
Regarding UGACAGGGGGACUCAGCAGAAGCGUUCACGUCGCAGCCCCUGGCAGAUUCUGGUGAAUCUGCGAAUUCUGCAGUAUGUCUC [A2G C11A A13U U43G U72A A77G], the self-cleavage turned out to be 0.05. The same measure for UGAUACGGGGCCACAGCAGAAGCGUUCACGUCGCAGCCCCCGUCAGGUUCUGGGGAAUCUGCGAAUUCUGCUGUAUAUCAC [A2G C4U G6C U41C A47G U54G U80A]: 0.37. On to UGACAGGGGGCCAUAGCAGAAGCGUUCCCGUCGCAGCCCCUGUCAGAUUCUGGUGAGCCUGCUAAUUCUGCUGUAUAUCUC [A2G C14U A28C A57G U58C G63U], for which the self-cleavage turned out to be 0.09. The same measure for UGACAGGGGGCCAGAGCAGAAGCGUUCACGUCGGAGCCCCUGUCGGACUCUGGUGAGUCUGCGAACUCUGCUGUAUAUCUC [A2G C14G C34G A45G U48C A57G U66C]: 0.04; for UGACAGGGGGCUACAGCAGAAGCGUUCACGUCGCAGCCCCUGCCAGAUUCUGGUGAAUCUGCGAAUUCUUCUGUAUAUCUC [A2G C12U U43C G70U]: 0.21. In the case of UGACAGGGGGCCACAGAAGAAGCGUUCACGUCGCAGCCCCUGUCAGAUUCAGGUGAAUCUGCGAAUUCUGCUGUAUAUCUC [A2G C17A U51A], the self-cleavage came to 0.55. UGACAGGGGGCUACAGCAGAAGCGUUCACGUCGCAGCCCCUGUCAGAUUCUGGUGAAUCUGCGAGCUCUGCUGUAUAUCUC [A2G C12U A65G U66C]: the self-cleavage stood at 0.13. As to UGAUAGGGGGCCUCAGCAGAAGCGUUCGCGUCGCAGCCCCUGUCAGAUUCUGGUGAAUCUGCGAAUUCUGCAGUAUAUCUC [A2G C4U A13U A28G U72A], the self-cleavage was 0.84. Consider UGACAGGGGGCUACAGCAGAAGCGUUCACGACGCAGCCCCAGUCAGAUUCUGGUGAAUCUGCGAAUUCUGCUGUAUAUCUC [A2G C12U U31A U41A], for which the self-cleavage was determined as 0.25.

UGAUAGGGGGCCACAGCAGAAGCGUACACGUCGCAGCCCCUGUCAGAUUCUGGUGAAUCUGCGAACUCCGCUGUAUAUCUC [A2G C4U U26A U66C U69C]: the self-cleavage came to 0.5.

Take UGACAGGGGGCCAUAGCGGACGCGUUCACGUCGCAGCCCCCGUCGGAUUCUGGUGAAUCUGCGAAUUCUGCUGUAUAUCUC [A2G C14U A18G A21C U41C A45G]: the self-cleavage was determined as 0.43.

For UGACAGGGGGCGACAGCAGAAGCGUUAACGUCACAGCCCCUGUCAGAUUCUGGUGAAUCUGCGAAUUCUGCUGUAUAUCUC [A2G C12G C27A G33A], the self-cleavage was determined as 0.07. The same measure for UGAUAGGGGGCCACAGCAGAAGCGUUCACGUCGCUGCCCCUAUCAGAUUCUGGUGAAUCUGCGAAAUCUGCCGUAUAUCUC [A2G C4U A35U G42A U66A U72C]: 0.08; for UGACAGGGGGCUACAGCAGAAGCGUUCACGUCGCAGCCCCUGUCAGAUUCUGGUGAAUCUGCGGAUUCUGCUGUAUAUCUC [A2G C12U A64G]: 0.85. Take UGACAGGGGGCUACAGCAGAGGCGUUCACGUCGCGUCCCCUGCCAGAUCCUGGUGAAUCUGCGAAUUCUGCUGUAUAUCUC [A2G C12U A21G A35G G36U U43C U49C]: the self-cleavage was 0.04.

For the variant UGACAGGGGGCUACAGCAGAAGCGUUCACGUCGCAGCCCCUGUCAGAUUCUGGUGAAUCUGCGGACUCUGCUGCAUAUCCC [A2G C12U A64G U66C U74C U80C], the self-cleavage came out at 0.21. With UGACAGGGGGGCACAGCUGAAGCGUUCACGUCGCAGCCCCUGUCAGAUUCUGGUGAAUCCGCGAAUUCUGCUGUAUAUCUC [A2G C11G A18U U60C], the self-cleavage came out at 0.21. The same measure for UGACAGGGGGGCACAGCAGAAGCGUUCACGUCGCAGCCCCUGUCAGAUUCUGGCGAAUCUGCGUAUUCUGCUGCACAUCUC [A2G C11G U54C A64U U74C U76C]: 0.1; for UGACAGGGGGCCACAGCAGAAGCGUUUGCGUCGCAGCCCCUGUCUGAUUCUGGUGAAUCUGCGAAUUCUGCAGUAUAUCUC [A2G C27U A28G A45U U72A]: 0.1. UGACAGGGGGCCAAGGCAGAAGCGUACACGUCGCAGCCCCUGUCAGAUUCUGGUGGAUCUGCGAAUUCUGCUGUAUAUCCC [A2G C14A A15G U26A A56G U80C]: the self-cleavage was found to be 0.6. The same measure for UGAUAGGGGGCCACGGCAGGAGCGUCCGCGUCGCAGCCCCUGUCAGAUUCUGGUGAAUCUGCGAAUUCUGCUGUAUAUCUC [A2G C4U A15G A20G U26C A28G]: 0.65.

As to UGACAGGGGGCCACAGCAGAAGAGUUCACGUUGCAGCCCCUGUCAGAUUCAGGUGAAUCUGCGAAUUCUGCUGUAUAUCAC [A2G C23A C32U U51A U80A], the self-cleavage is 0.23. UGACAGGGGGCAACAGCAGAAGCGCUCACGUCGCAGCCCCAGUCGGAUUCUGGUGAAUCUGCGAAUUCUGCUGCAUAUCCC [A2G C12A U25C U41A A45G U74C U80C]: the self-cleavage came to 0.04. The same measure for UGACAGGGGGCCACAGUAGAAGCGUUCACGUCGCAUCCCCUGUCAGAUUCUGGUGAAUCUGCGAAUUCUGCUGUAUAUCUC [A2G C17U G36U]: 0.04.

On to UGACAGGGGGGCACAGCAGAAGCGUUCACGUCGCAGCCCCUGUAAGAUUCUGGUGAAUAUGCGAAUUCUGCCGUAUAUCUC [A2G C11G C44A C59A U72C], for which the self-cleavage amounted to 0.06. The same measure for UGACAGGGGGGCUCAGCAGGAGCGUUCACGUCGUAGCCCCCGUCAGAUUCUGGUGAAUCUGCGAAUUCUGCUGUAUAUCUC [A2G C11G A13U A20G C34U U41C]: 0.08.

Turning to UGAUAGGGGGCCACAGCAGGAGCGUUCACGUCGCAGCCCCUGUCAGAUUCUGGUGAAUCUGCGAAUUCUGCCGUAUAUCUC [A2G C4U A20G U72C], the self-cleavage is 1.13. For UGACAGGGGGCCAUAGCAGAAGCGUUCACGUCGCAGCCCCUGUCGGAUUCUGGUGAACCUGCGAAUUCUGCUGUAUAUCUC [A2G C14U A45G U58C], the self-cleavage was determined as 0.34. Consider UGACAGGGGGGCACAGCAGAAGCGUUCACGUCGCAGCCCCUGUCUGAUUCUGGUGAAUCUGCGAAUUCUGCUGUACAUCUC [A2G C11G A45U U76C], for which the self-cleavage amounted to 0.35. With UGACAGGGGGUCACAGCUGAAGCGUUCACGUCGCUGCCCCUGUCAGAUUCUGGGGAAUCUGCGAAUUCCGCUGUAUAUCUC [A2G C11U A18U A35U U54G U69C], the self-cleavage worked out at 0.03. The same measure for UGACAGGGGGCCAUAGCAGAAGCGUCCACGUCGCAGCCCCUGUCAAAUUCUGGAGGAUCCGCGAAUUCUGCUGUAUAUCUC [A2G C14U U26C G46A U54A A56G U60C]: 0.07. The same measure for UGACAGGGGGACACAGCAGAAGCGUUCACGUCGCAGCCCCUGUCAGAUUCUGGUGAAUCUGCGAAUACUGCUGUAUAUCUC [A2G C11A U67A]: 0.3; for UGACAGGGGGCUACAGCAGAAGCGUUCACGUCGCACCCCCUGUCAGAUUCUGGUGAAUCUGCGAAUUCUGCUGUAUACCUC [A2G C12U G36C U78C]: 0.06; for UGACAGGGGGCGACAGCAGAAGCGUUCACGUCGCAGCCCCUAUAAGAUUCUGGUGAAUCAGCGAAUACUGCUGUAUAUCUC [A2G C12G G42A C44A U60A U67A]: 0.13.

(Values after the RNAGym collection of RNA variant scans (doi:10.1093/nar/gkz1192).)
